Patent US20210269496A1 (PANDION OPERATIONS, published 2021)

Target: T1, CD25 (Homo sapiens (Human), UniProt P01589 22-240)
T1 construct: also called IL-2R alpha chain
T1 sequence: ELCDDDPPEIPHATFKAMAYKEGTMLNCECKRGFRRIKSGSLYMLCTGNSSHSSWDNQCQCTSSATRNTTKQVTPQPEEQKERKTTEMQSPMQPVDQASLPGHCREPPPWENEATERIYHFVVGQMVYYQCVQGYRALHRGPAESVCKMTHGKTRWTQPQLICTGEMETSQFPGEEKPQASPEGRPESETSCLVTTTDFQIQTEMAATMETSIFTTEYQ
Experiment: ELISA, CD25 coated at 0.5 µg/mL, detection with biotinylated anti-IL-2 polyclonal
Method: An immunosorbent plate was coated with CD25 at a concentration of 0.5 μg/mL in PBS pH 7.4, 75 μL/well, and incubated overnight at 4° C. Wells were washed with PBS pH 7.4 containing 0.05% Tween-20 (wash buffer) three times, and then blocked with 200 μL/well 1% BSA in PBS pH 7.4 (block buffer) for two hours at room temperature. After three washes with wash buffer IL-2 muteins SEQ ID NO: 53, SEQ ID NO: 54, SEQ ID NO: 55, SEQ ID NO: 56 were diluted to eleven-two fold serial dilution in PBS containing 1% BSA and 0.05% Tween-20 (assay buffer) with 2 nM being the highest concentration. The diluted material was added to the CD25 coated plate at 75 μL/well for 1 hour at room temperature. After three washes with wash buffer, a goat biotinylated anti-IL-2 polyclonal antibody, diluted to 0.05 μg/mL in assay buffer, was added to the plate at 75 μL/well for 1 hour at room temperature. After three washes with wash buffer high sensitivity streptavidin HRP diluted in assay buffer at 1:5000 was added to the plate at 75 μL/well for 15 minutes at room temperature. After three washes with wash buffer and 1 wash with wash buffer (with no Tween-20), the assay was developed with TMB, and stopped with 1N HCL. OD 450 nm was measured. The experiment included appropriate controls for non-specific binding of the molecules to the plate/block in the absence of CD25. […]

EC50: < 1 nM
B1: human IL-2 mutein polypeptide fused C-terminally to human IgG1 Fc domain (SEQ ID NO: 58) (Fc fusion)
chain: [in this place human IgG1 Fc with changes]GGGSAPTSSSTKKTQLQLEHLLLDLQMILNGINNYKNPKLTRMLTFKFYMPKKATELKHLQCLEEELKPLEEALNLAPSKNFHLRPRDLISDINVIVLELKGSETTFMCEYADETATIVEFLNRWITFAQSIISTLT
notes: also called FC-G4S-IL-2 N88D V69A, Q74P
